Test results as given in PubChem BioAssay (Tox21).
Where “and” joins values, the source holds several entries; their conditions need not be identical. Equal values may be shown once. This list was built around the results that the source calls inconclusive (neither active nor inactive); the mix of calls is not that of the screen. For part of these data: Potencies of inconclusive entries are left out as doubtful fits. Calls of active or inactive are those of the source. Unless noted, the call rests on the fitted dose curve; in most records, active means well fitted curve in the direction sought with a large enough effect in the repeat runs; inconclusive means weak or mixed curves; inactive means no such curve, though single readings can be large; an effect the other way counts as inactive or inconclusive.

Columns and labels:
[1] = qHTS assay to identify small molecule that activate the aryl hydrocarbon receptor (AhR) signaling pathway - cell viability counter screen (AID 743086); further: potency means the concentration at half of the fitted maximal effect; nearly all actives have a fitted effect of over 45% in size
Outline: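 HepG2-AhR-luc (HG2L7.5c1) cells, 4000/well, were preincubated 5 h at 37C, exposed to compound in qHTS format for 24 hr at 37C, then given CellTiter-Fluor for 30 min; viability was read as fluorescence in the reporter wells.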

[2] = target: Peroxisome proliferator-activated receptor gamma (Homo sapiens) (UniProt P37231); assay: qHTS assay to identify small molecule agonists of the peroxisome proliferator-activated receptor gamma (PPARg) signaling pathway (AID 743094; active means well fitted activation curve with a large enough effect in the signal ratio in the repeat runs, not every such curve was filed as active; inconclusive means weak or mixed curves, or effect the other way; inactive means no such curve, though single readings can be large or run the other way; the % refers to the signal ratio; further: on the % scale 0 is the no-effect control and ±100 the full control effect); details: HEK293H PPARg-UAS-bla, beta-lactamase FRET ratio, 17 h; activation: at 57 µM (top of the series) unless noted
Outline: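 HEK293H PPARg-bla cells, 5 h settle at 37C/5% CO2; compound (DMSO) 17 h, 37C; B/G FRET substrate 1 h RT; fluorescence intensity read-out. qHTS format.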

[3] = target: Peroxisome proliferator-activated receptor gamma (Homo sapiens) (UniProt P37231); assay: qHTS assay to identify small molecule antagonists of the peroxisome proliferator-activated receptor gamma (PPARg) signaling pathway (AID 743191; calls by dose curve; further: nearly all actives have a fitted effect of over 30% in size; further: potency means the concentration at half of the fitted maximal effect; on ratio activity, negative = inhibition: on the % scale 0 is the no-effect control and ±100 the full control effect); details: HEK293H PPARg-UAS-bla, beta-lactamase ratio, antagonist, 17 h; ratio activity, negative = inhibition: at 62.6 µM (top of the series) unless noted
Outline: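 GeneBLAzer PPARg UAS-bla HEK293H cells carrying a UAS-driven beta-lactamase reporter were plated at 3000 cells/well, preincubated 5 h at 37C, then given compound for 17 h at 37C; LiveBLAzer B/G FRET substrate was read after 1 h at room temperature.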

[4] = qHTS assay to identify small molecule antagonists of the peroxisome proliferator-activated receptor gamma (PPARg) signaling pathway - cell viability counter screen (AID 743194); details: PPARg-bla HEK293H viability, CellTiter-Glo luminescence, 17 h, co-treated with 50 nM rosiglitazone; activity change, negative = cytotoxicity: at 62.6 µM (top of the series) unless noted; further: nearly all actives have a fitted effect of over 55% in size; further: potency means the concentration at half of the fitted maximal effect; on activity change, negative = cytotoxicity: on the % scale 0 is the no-effect control and ±100 the full control effect
Outline: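 PPARg-UAS-bla HEK293H cells were plated, rested 5 h at 37 C, then treated with compounds plus rosiglitazone (50 nM final) for 17 h at 37 C; viability was then read by CellTiter-Glo luminescence after 30 min at room temperature.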

[5] = qHTS assay for small molecule agonists of the antioxidant response element (ARE) signaling pathway (AID 743202; active means well fitted activation curve with a large enough effect in the signal ratio in the repeat runs, not every such curve was filed as active; inconclusive means weak or mixed curves, or effect the other way; inactive means no such curve, though single readings can be large or run the other way; the % refers to the signal ratio; further: potency means the concentration at half of the fitted maximal effect); details: HepG2 ARE-bla reporter, beta-lactamase FRET, 16 h; activation: at 73.3 µM (top of the series) unless noted
Outline: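 Following a 16 h, 37 C exposure of reporter HepG2 cells (ARE-driven beta-lactamase, 2,000 cells/well) to compounds, FRET substrate was applied for 2 h at room temperature and fluorescence intensity recorded.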

[6] = qHTS assay for small molecule activators of the heat shock response signaling pathway - cell viability counter screen (AID 743209); details: HSE-bla HeLa viability, CellTiter-Glo luminescence, 5 h; activity change, negative = cytotoxicity: at 62.6 µM (top of the series) unless noted; further: nearly all actives have a fitted effect of over 50% in size; further: potency means the concentration at half of the fitted maximal effect
Outline: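 HSE-bla HeLa; 1500 cells/well; overnight 37 C, 5% CO2; compound 5 h 37 C; LiveBLAzer B/G substrate 2.5 h RT; CellTiter-Glo 30 min RT; luminescence.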

[7] = qHTS assay for small molecule activators of the heat shock response signaling pathway (AID 743210; active means well fitted activation curve with a large enough effect in the signal ratio in the repeat runs, with a control signal flat, not every such curve was filed as active; inconclusive means weak or mixed curves; the % refers to the signal ratio; further: potency means the concentration at half of the fitted maximal effect); details: HeLa HSE-bla reporter, beta-lactamase ratio, 5 h; activation: at 62.6 µM (top of the series)
Outline: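 Heat shock element–beta-lactamase HeLa reporter cells; qHTS with compounds for 5 h at 37 C; detection by FRET substrate fluorescence after 2.5 h at RT.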

[8] = target: Peroxisome proliferator-activated receptor delta (Homo sapiens) (UniProt Q03181); assay: qHTS assay to identify small molecule agonists of the peroxisome proliferator-activated receptor delta (PPARd) signaling pathway (AID 743212; calls by dose curve; further: potency means the concentration at half of the fitted maximal effect; on activation: on the % scale 0 is the no-effect control and ±100 the full control effect); details: HEK293H PPARd-UAS-bla, beta-lactamase FRET ratio, 17 h; activation: at 62.6 µM (top of the series) unless noted
Outline: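 Beta-lactamase reporter read by fluorescence (LiveBLAzer B/G FRET, 2 h, room temperature). Test agents, in DMSO, incubated at 37 C with PPARd-bla HEK293H cells.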

[9] = qHTS assay to identify small molecule antagonists of the peroxisome proliferator-activated receptor delta (PPARd) signaling pathway - cell viability counter screen (AID 743213); details: PPARd-bla HEK293H viability, CellTiter-Glo luminescence, 17 h; viability change, negative = cytotoxic: at 62 µM (top of the series) unless noted; further: potency means the concentration at half of the fitted maximal effect; nearly all actives have a fitted effect of over 50% in size
Outline: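 Luminescence from CellTiter-Glo, added after the bla read and incubated 30 min at room temperature, gives viability of HEK293H PPARd-bla cells exposed to compounds for 17 h at 37 C with 300 nM L165041.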

[10] = target: Peroxisome proliferator-activated receptor delta (Homo sapiens) (UniProt Q03181); assay: qHTS assay to identify small molecule antagonists of the peroxisome proliferator-activated receptor delta (PPARd) signaling pathway (AID 743215; active means well fitted inhibition curve with a large enough effect in the signal ratio in the repeat runs, not every such curve was filed as active; inconclusive means weak or mixed curves, or effect the other way; inactive means no such curve, though single readings can be large or run the other way; the % refers to the signal ratio;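 further: cells stimulated with agonist L165041 at 300 nM final during compound exposure; potency means the concentration at half of the fitted maximal effect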); details: HEK293H PPARd-UAS-bla, beta-lactamase FRET ratio, antagonist, 17 h; ratio activity, negative = inhibition: at 62 µM (top of the series) unless noted
Outline: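 HEK293H GeneBLAzer PPARd UAS-bla reporter cells; cpd + L165041 300 nM final, 17 h 37 C; LiveBLAzer B/G FRET substrate 2 h RT; fluorescence intensity read-out. Antagonist mode.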

[11] = target: Bile acid receptor (Homo sapiens) (UniProt Q96RI1); assay: qHTS assay to identify small molecule antagonists of the farnesoid-X-receptor (FXR) signaling pathway (AID 743217; active means well fitted inhibition curve with a large enough effect in the signal ratio in the repeat runs, not every such curve was filed as active; inconclusive means weak or mixed curves, or effect the other way; inactive means no such curve, though single readings can be large or run the other way; the % refers to the signal ratio; further: potency means the concentration at half of the fitted maximal effect); details: HEK293T FXR-UAS-bla, beta-lactamase ratio, CDCA-stimulated, 16 h; activity change, negative = inhibition: at 62.6 µM (top of the series) unless noted
Outline: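 Read-out: beta-lactamase FRET fluorescence (LiveBLAzer B/G substrate, 2 h, room temperature) in GeneBLAzer FXR-UAS-bla HEK 293T cells. Compounds were co-dosed with 50 uM chenodeoxycholic acid (final) and incubated 16 h at 37 °C.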

[12] = qHTS assay to identify small molecule agonists of the farnesoid-X-receptor (FXR) signaling pathway - cell viability counter screen (AID 743218); details: FXR-bla HEK293T viability, CellTiter-Glo luminescence, 16 h; viability change, negative = cytotoxic: at 62.6 µM (top of the series) unless noted; further: potency means the concentration at half of the fitted maximal effect; nearly all actives have a fitted effect of over 45% in size
Outline: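 Luminescence from CellTiter-Glo, read after 30 min at RT, reports viability of GeneBLAzer FXR-UAS-bla HEK 293T cells treated 16 h with compounds in the wells used for the beta-lactamase reporter.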

[13] = target: Bile acid receptor (Homo sapiens) (UniProt Q96RI1); assay: qHTS assay to identify small molecule agonists of the farnesoid-X-receptor (FXR) signaling pathway (AID 743220; active means well fitted activation curve with a large enough effect in the signal ratio in the repeat runs, not every such curve was filed as active; inconclusive means weak or mixed curves, or effect the other way; the % refers to the signal ratio; further: potency means the concentration at half of the fitted maximal effect); details: HEK293T FXR-UAS-bla, beta-lactamase FRET ratio, 16 h; activation: at 62.6 µM (top of the series) unless noted
Outline: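 FXR-UAS-bla HEK 293T cells carrying a UAS-driven beta-lactamase reporter were plated for 5 h at 37C/5% CO2, then exposed to DMSO-dissolved Tox21 10K compounds for 16 h at 37C. A LiveBLAzer B/G FRET substrate was loaded for 2 h at room temperature before fluorescence reading.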

[14] = target: Vitamin D3 receptor (Homo sapiens) (UniProt P11473); assay: qHTS assay to identify small molecule agonists of the vitamin D receptor (VDR) signaling pathway (AID 743222; calls by dose curve; further: potency means the concentration at half of the fitted maximal effect); details: HEK293T VDR-UAS-bla, beta-lactamase FRET ratio, 16 h; activation: at 63.5 µM (top of the series) unless noted
Outline: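 Beta-lactamase reporter readout (LiveBLAzer B/G FRET, 2 h RT) in VDR-bla cells after 16 h compound treatment at 37C, 5% CO2; cells pre-incubated 4 h before pin transfer of DMSO solutions.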

[15] = target: Vitamin D3 receptor (Homo sapiens) (UniProt P11473); assay: qHTS assay to identify small molecule antagonists of the vitamin D receptor (VDR) signaling pathway (AID 743223; active means well fitted inhibition curve with a large enough effect in the signal ratio in the repeat runs, not every such curve was filed as active; inconclusive means weak or mixed curves, or effect the other way; inactive means no such curve, though single readings can be large or run the other way; the % refers to the signal ratio; further: potency means the concentration at half of the fitted maximal effect); details: VDR-UAS-bla HEK293T, beta-lactamase FRET ratio, 16 h; activity change, negative = inhibition: at 61 µM (top of the series) unless noted
Outline: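 VDR-bla cells were plated, incubated 4 h at 37C, then given compound and 1alpha,25-dihydroxyvitamin D3 (3 nM final). After 16 h at 37C, LiveBLAzer B/G FRET substrate was added for 2 h at room temperature and fluorescence read.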

[16] = qHTS assay to identify small molecule antagonists of the vitamin D receptor (VDR) signaling pathway - cell viability counter screen (AID 743225); details: VDR-bla HEK293T viability, CellTiter-Glo luminescence, 16 h; viability change, negative = cytotoxic: at 61 µM (top of the series) unless noted; further: potency means the concentration at half of the fitted maximal effect; nearly all actives have a fitted effect of over 50% in size
Outline: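 VDR-bla HEK 293T cells, 4 h pre-incubation at 37C, then compound plus 1-alpha,25-dihydroxyvitamin D3 (3 nM final) for 16 h. After the beta-lactamase FRET read, CellTiter-Glo was added to the same wells; luminescence after 30 min at room temperature.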

[17] = qHTS assay to identify small molecule agonists of the vitamin D receptor (VDR) signaling pathway - cell viability counter screen (AID 743224); details: VDR-bla HEK293T viability, CellTiter-Glo luminescence, 16 h; activity change, negative = cytotoxicity: at 62.6 µM (top of the series) unless noted; further: nearly all actives have a fitted effect of over 50% in size; further: potency means the concentration at half of the fitted maximal effect
Outline: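 Cytotoxicity counter screen: VDR-bla cells, 16 h compound exposure at 37C, 5% CO2; CellTiter-Glo luminescence, 30 min RT, same wells as bla read.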
Tags describe the fitted curve by direction and shape or compound fluorescence and quenching.

Sequence of UniProt Q96RI1 (Q96RI1 whole entry, looked up): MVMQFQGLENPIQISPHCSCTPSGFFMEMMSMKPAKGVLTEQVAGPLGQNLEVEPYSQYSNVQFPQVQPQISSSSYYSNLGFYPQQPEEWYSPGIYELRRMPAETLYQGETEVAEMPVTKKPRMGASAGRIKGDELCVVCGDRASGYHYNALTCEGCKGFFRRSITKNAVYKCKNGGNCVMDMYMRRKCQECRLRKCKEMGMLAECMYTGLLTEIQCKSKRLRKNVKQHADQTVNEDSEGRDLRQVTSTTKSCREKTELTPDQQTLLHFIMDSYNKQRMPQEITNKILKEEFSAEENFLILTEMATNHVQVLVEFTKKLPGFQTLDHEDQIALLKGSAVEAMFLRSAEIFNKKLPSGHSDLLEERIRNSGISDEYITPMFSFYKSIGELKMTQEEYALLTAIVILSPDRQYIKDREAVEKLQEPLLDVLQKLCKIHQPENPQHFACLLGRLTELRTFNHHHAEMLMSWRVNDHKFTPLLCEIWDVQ
Sequence of UniProt P37231 (P37231 whole entry, looked up): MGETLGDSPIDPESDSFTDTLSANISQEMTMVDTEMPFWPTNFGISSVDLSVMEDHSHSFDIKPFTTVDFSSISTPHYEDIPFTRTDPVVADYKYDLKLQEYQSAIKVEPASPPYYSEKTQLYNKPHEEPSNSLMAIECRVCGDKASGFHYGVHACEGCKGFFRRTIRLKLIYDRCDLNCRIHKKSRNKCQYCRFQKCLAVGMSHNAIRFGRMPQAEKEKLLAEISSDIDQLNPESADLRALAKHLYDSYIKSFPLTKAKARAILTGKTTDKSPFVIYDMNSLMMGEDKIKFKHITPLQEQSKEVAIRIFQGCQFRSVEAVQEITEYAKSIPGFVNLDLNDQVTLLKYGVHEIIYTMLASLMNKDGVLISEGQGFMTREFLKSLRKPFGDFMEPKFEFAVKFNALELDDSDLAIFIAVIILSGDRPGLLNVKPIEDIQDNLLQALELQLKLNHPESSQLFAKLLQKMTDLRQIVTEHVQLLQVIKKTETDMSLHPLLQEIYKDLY
Sequence of UniProt P11473 (P11473 whole entry, looked up): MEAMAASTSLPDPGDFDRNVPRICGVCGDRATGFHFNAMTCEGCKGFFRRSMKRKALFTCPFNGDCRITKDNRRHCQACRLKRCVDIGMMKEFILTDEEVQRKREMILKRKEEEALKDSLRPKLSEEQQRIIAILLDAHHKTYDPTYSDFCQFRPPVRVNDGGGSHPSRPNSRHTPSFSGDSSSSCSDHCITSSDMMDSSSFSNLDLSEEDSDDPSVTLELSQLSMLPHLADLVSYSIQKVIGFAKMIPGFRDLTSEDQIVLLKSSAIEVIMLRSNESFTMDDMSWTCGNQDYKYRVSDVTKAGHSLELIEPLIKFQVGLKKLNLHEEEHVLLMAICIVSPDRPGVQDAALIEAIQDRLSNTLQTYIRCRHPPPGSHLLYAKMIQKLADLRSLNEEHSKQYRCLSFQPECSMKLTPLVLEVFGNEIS
Sequence of UniProt Q03181 (Q03181 whole entry, looked up): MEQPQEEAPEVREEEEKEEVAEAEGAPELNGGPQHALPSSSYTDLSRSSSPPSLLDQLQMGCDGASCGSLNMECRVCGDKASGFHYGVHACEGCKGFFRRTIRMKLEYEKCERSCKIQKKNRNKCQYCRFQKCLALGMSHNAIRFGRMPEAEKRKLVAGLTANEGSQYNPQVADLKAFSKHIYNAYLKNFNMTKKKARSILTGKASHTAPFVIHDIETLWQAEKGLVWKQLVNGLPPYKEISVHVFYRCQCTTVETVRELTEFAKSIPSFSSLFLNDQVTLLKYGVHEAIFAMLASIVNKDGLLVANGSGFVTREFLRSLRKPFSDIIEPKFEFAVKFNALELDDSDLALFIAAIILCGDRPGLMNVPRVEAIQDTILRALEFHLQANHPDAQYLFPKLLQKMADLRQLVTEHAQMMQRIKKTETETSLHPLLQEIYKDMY

SMILES	Potency [1]	activation [2]	Potency [3]	Potency [4]	Potency [5]	Potency [6]	Potency [7]	activation [8]	Potency [9]	Potency [10]	Potency [11]	Potency [12]	Potency [13]	Potency [14]	Potency [15]	Potency [16]	ratio activity, negative = inhibition [3]	activation [5]	Potency [17]	Potency [8]
Cc1cc2c(C(C)C)c(O)c(O)c(C=O)c2c(O)c1-c1c(C)cc2c(C(C)C)c(O)c(O)c(C=O)c2c1O	inconclusive [falling, partial curve]	inconclusive: 5.92%	inconclusive [cytotoxic, single point]	active: 8.41 µM	inconclusive [falling, partial curve]	active: 13.3 µM	inconclusive	inconclusive: -9.85%	active: 11.9 µM	active: 18.8 µM	inconclusive	active: 10.6 µM	inconclusive [rising, single point]	inconclusive [rising, full curve]	inconclusive [rising, full curve]	active: 9.52 µM	–	–	–	–
O=C(O[C@@H]1Cc2c(O)cc(O)cc2O[C@@H]1c1cc(O)c(O)c(O)c1)c1cc(O)c(O)c(O)c1	active: 34.4 µM and active: 41.7 µM	inconclusive: -12.1%	–	inactive	inconclusive [falling, full curve]	inactive	inconclusive [activator]	–	–	–	–	inconclusive [rising, full curve, poor fit]	–	–	–	–	inconclusive: 21.6% and inconclusive: -31.2%	inconclusive: -1.71%	inactive	–
OC1(c2ccc(Cl)c(C(F)(F)F)c2)CCN(CCCC(c2ccc(F)cc2)c2ccc(F)cc2)CC1	active: 21.1 µM	inconclusive: -10.8%	inconclusive [cytotoxic, single point]	active: 8.41 µM	inconclusive [falling, full curve]	active: 7.5 µM	inconclusive	–	active: 11.9 µM	active: 26.6 µM	inconclusive [rising, partial curve, poor fit]	active: 9.44 µM	inconclusive [falling, single point]	inconclusive [rising, full curve]	inconclusive	–	–	–	active: 13.3 µM	inconclusive [falling, single point]
